# Measurements published in PubChem BioAssay AID1346428 (National Center for Advancing Translational Sciences (NCATS), 2018).
# Screen size: about 48,000 compounds; about 1,200 (2.5%) were called active. About 2% were inconclusive and are not listed.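 The calls were made as follows: active = activation of at least 60% and not above a set upper limit (about 1 call in 100 departs from these limits); inconclusive = activation of 40% to 60%, or above that upper limit; inactive = activation under 40%.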 Some of the results follow.
# Target: Probable G-protein coupled receptor 32 (Homo sapiens) (UniProt O75388)
# UniProt O75388, sequence (O75388 whole entry, looked up): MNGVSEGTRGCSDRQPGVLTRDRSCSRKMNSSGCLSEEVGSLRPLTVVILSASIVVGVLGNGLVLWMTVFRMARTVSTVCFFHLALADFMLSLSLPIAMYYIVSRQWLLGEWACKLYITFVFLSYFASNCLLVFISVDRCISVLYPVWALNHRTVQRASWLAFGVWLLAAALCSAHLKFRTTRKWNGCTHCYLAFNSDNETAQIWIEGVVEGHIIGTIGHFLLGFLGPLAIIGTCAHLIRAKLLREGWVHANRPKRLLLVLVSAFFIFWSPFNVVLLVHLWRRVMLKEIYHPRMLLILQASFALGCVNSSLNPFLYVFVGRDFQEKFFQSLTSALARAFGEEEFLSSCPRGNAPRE
# Experiment: qHTS for Agonists of Human Resolvin D1 Receptor DRV1; also: 0% is about no effect
# Conditions: CHO-K1 GPR32 beta-arrestin PathHunter luminescence, 90 min; at 76.9 µM; stronger effect = higher value; zero percent set by DMSO-only wells
# Procedure, shortened: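 PathHunter beta-arrestin recruitment in CHO-K1 cells stably expressing ProLink-tagged GPR32. Cells were exposed to compound for 90 min at 37 C, then chemiluminescence was read after 1 h detection at ambient temperature; DMSO served as basal control.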
row,Compound,activation
1,CCC1CCCCN1CCCNC(=O)c1ccc2c(c1)N(Cc1ccc(Cl)cc1)C(=O)c1ccccc1S2(=O)=O (stereo not given),inactive: -6.38%
2,O=C(Cn1cc(C(=O)C2CC2)c2ccccc21)Nc1ccc(Br)cc1,inactive: 25.6%
3,Cc1ccc(C)c(Cn2c(=O)n(CCCCCC(=O)NCc3ccc4c(c3)OCO4)c(=O)c3sccc32)c1,inactive: -12.5%
4,CC(=O)c1ccc(NC(=O)CCCc2nc(-c3cccc(C)c3)no2)cc1,inactive: 29.7%
5,Cc1ccc2c(CC(=O)N(Cc3ccc(Cl)cc3)Cc3ccco3)coc2c1,inactive: -27%
6,Cc1ccccc1Nc1cc(C(=O)NCCc2ccc(Cl)cc2)c2ccccc2n1,inactive: -15.3%
7,COC(=O)Cc1c(C)c2ccc3c(c2oc1=O)CN(Cc1ccccc1OC)CO3,inactive: -12.5%
8,CC(CNC(=O)Cn1c(-c2cccs2)cc2ccccc21)c1ccccc1 (stereo not given),inactive: -23.3%
9,CCC(=O)N1CCc2cc(Br)cc(S(=O)(=O)N3CCCC(C(=O)NCc4ccc(OC)cc4)C3)c21 (stereo not given),inactive: 1.7%
10,Cc1oc(-c2ccc(Cl)cc2)nc1CSCC(=O)NCc1ccccc1Cl,inactive: -15.2%
11,COc1cc(C2c3c(oc4ccc(C)cc4c3=O)C(=O)N2Cc2ccccc2)ccc1O (stereo not given),inactive: -2.46%
12,COc1cccc(C(=O)Nc2c(C(=O)c3ccc(F)cc3)oc3ccccc23)c1,inactive: -0.899%
13,Cc1ccc(Cl)cc1N1CCN(CCCNC(=O)c2nnc(Cc3cccc(Cl)c3)o2)CC1,inactive: -3.6%
14,O=C(Nc1cccc(F)c1)c1cccc2c1C(=O)N(C1CCCCC1)C2,inactive: -19.5%
15,CCCOc1ccc(C2c3c(-c4ccccc4O)n[nH]c3C(=O)N2CCCOCC)cc1OCC (stereo not given),inactive: -10.2%
16,CCC(=O)N1CCCc2cc(S(=O)(=O)N3CCC(C(=O)Nc4ccccc4CC)CC3)ccc21,inactive: 6.2%
17,COc1cccc(NC(=O)CSc2nnc(-c3cccs3)o2)c1,inactive: -0.232%
18,COc1ccccc1NC(=O)Cn1c(=O)n(-c2cccc(Cl)c2)c(=O)c2c1c1cc(C)ccc1n2C,inactive: -9.68%
19,CC1=C(c2ccc(C)c(C)c2)S(=O)(=O)N=C1N1CCC(C(=O)Nc2cccc(F)c2)CC1,inactive: -13.3%
20,Cc1cc(C)cc(Nc2nnc(-n3nc(C)cc3C)c3ccccc23)c1,inactive: -26.6%
21,CN1CCc2nc3sc(C(=O)Nc4cccc(C#N)c4)c(N)c3cc2C1,inactive: 15.8%
22,CCCOc1ccc(NC(=O)CC2C(=O)N(c3ccc(Cl)cc3)C(=O)N2CCc2ccncc2)cc1 (stereo not given),inactive: -13.9%

row,Compound,activation
1,CCN1CCN(Cc2c(O)ccc3oc(C)c(C(=O)Nc4ccc(C)cc4C)c23)CC1,inactive: -8.45%
2,CCc1ccccc1NC(=O)CSc1ncc(S(=O)(=O)c2ccccc2)c(=O)[nH]1,inactive: -2.96%
3,Cc1cccc(OCC(=O)Nc2ccc(Cl)c(-c3nc4ccccc4[nH]3)c2)c1,inactive: -0.956%
4,O=C(CCc1nc2cccnc2n1Cc1cccs1)Nc1cccc(Cl)c1,inactive: -19.1%
5,CCn1cc(C(=O)NCc2ccc(C)cc2)c(=O)c2cc(S(=O)(=O)N3CCCCCC3)ccc21,inactive: 21.3%
6,CCOc1ccc(CNC(=O)c2ccc(NC(=O)N3CCCCc4ccccc43)cc2)cc1OC,inactive: 18.8%
7,COc1ccccc1CNC(=O)c1ccc2nc(-c3ccccc3)c(-c3ccccc3)nc2c1,inactive: -0.886%
8,C/C=C/C=N/NC(=O)c1ccncc1,inactive: -4.7%
9,CC(C)CNc1nc(Oc2ccc(OCC(N)=O)nn2)nc(N2CCOCC2)n1,inactive: 1.69%
10,Cc1nn(C)c2c1c(C(F)(F)F)cc(=O)n2Cc1cccc(Br)c1,inactive: -2.37%
11,CCOC(=O)c1cc(-c2ccccc2)n(CCC(=O)Nc2ccc(Cl)c(C(F)(F)F)c2)c1C,inactive: 10.3%
12,Cc1cccc(NS(=O)(=O)c2ccc(-n3cccn3)cc2)c1C,active: 72.6%
13,Cn1cc(S(=O)(=O)N2CCCCCC2)cc1C(=O)NCc1ccccc1Cl,inactive: -6.46%
14,CCOc1ccc(-n2c(-c3ccccc3)c(C)n3c4c(=O)n(C)c(=O)n(C)c4nc23)cc1,inactive: 13.6%
15,N[C@@H](Cn1ccc(=O)c(O)c1)C(=O)O,inactive: -5.42%
16,CCCNC(=O)C1CCN(c2ncnc3c2nc2n3CCCCC2)CC1,inactive: 1.19%
17,CCc1ccc(-n2c(=O)c3sc4ccccc4c3n(Cc3cccc(F)c3)c2=O)cc1,inactive: 17.9%
18,CC(N)(Cc1ccc(O)c(O)c1)C(=O)O (stereo not given),inactive: -1.27%
19,CCc1nnc(NC(=O)c2nc(SCc3ccccc3C)ncc2Cl)s1,inactive: 9.71%
20,CCCCCOc1ccc(/C=C/C(=O)Nc2sc(C(C)=O)c(C)c2C(=O)OCC)cc1OC,inactive: 1.62%
21,CCCC(=O)NCC(c1ccc2c(c1)OCO2)N1CCN(c2ccccc2)CC1 (stereo not given),inactive: -19.2%
22,CCOC(=O)N1CCc2c(sc(NCc3ccc(OC)c(OC)c3OC)c2C(=O)Nc2ccc(OC)cc2OC)C1,active: 85.5%

row,Compound,activation
1,Cc1oc(C)c2c(=O)cc(-c3ccc4c(c3)OCO4)cc(OC(=O)c3ccccc3Cl)c12,inactive: -13.1%
2,CC(=O)NO,inactive: -5.5%
3,Cc1c(Cl)cccc1NC(=O)Cn1c(=O)nc(-c2ccccc2)c2ccccc21,inactive: -15.6%
4,Cc1onc(-c2ccc(F)cc2F)c1C(=O)Nc1cccc(C(F)(F)F)c1,inactive: -24.5%
5,CC(C)Sc1ncc(Cl)c(C(=O)Nc2nnc(C(C)C)s2)n1,inactive: 4.87%
6,CN(C(=O)C(=O)Nc1ccc2nc3n(c(=O)c2c1)CCCCC3)c1cccc(C(F)(F)F)c1,inactive: 24.7%
7,CCc1ccc(CNC(=O)c2cc(-c3ccc(Br)s3)nc3ccccc23)cc1,inactive: -5.41%
8,COc1cccc(-c2ccc3c(N)c(C(=O)NCc4ccc(Cl)cc4)sc3n2)c1,inactive: 6.57%
9,COc1ccc(OC)c(-c2cc(C(=O)NC(C)c3ccccc3)no2)c1 (stereo not given),inactive: -14.8%
10,O=C(Nc1ccccc1)c1cccc(S(=O)(=O)Nc2cccc(F)c2)c1,inactive: 48.2%
11,CCCOc1ccc(C2C(=O)N(C3CCC(C)CC3)CC(=O)N2CCC2=CCCCC2)cc1OC (stereo not given),inactive: -11.4%
12,Cc1cccc(N2CCN(C3(c4ccccc4)C(=O)c4ccccc4C3=O)CC2)c1C,inactive: -0.409%
13,Cc1ccc2onc(CC(=O)N(C)c3ccccc3)c2c1,inactive: -10.7%
14,COc1ccc(CCNC(=O)c2c(C)nn(-c3ccc(F)cc3)c2-n2cccc2)cc1OC,inactive: 16.6%
15,O=S(=O)(Nc1ccc2nc(-c3cccc(Cl)c3)oc2c1)c1ccccc1,active: 93.4%
16,Cc1ccc(S(=O)(=O)N2CCOCC2)cc1C(=O)Nc1ccccc1C(=O)O,inactive: -2.98%
17,CC(=O)N[C@@H](CCC(N)=O)C(=O)O,inactive: 2.95%
18,CCS(=O)(=O)c1ncc(Cl)c(C(=O)N2CCN(c3cccc(Cl)c3)CC2)n1,inactive: -22%
19,[O-][n+]1ccccc1SSc1cccc[n+]1[O-],inactive: 3.67%
20,Cc1ccc(NCc2ccccc2-c2nnc(-c3ccccc3Cl)o2)c(C)c1,inactive: -19.9%
21,NC(=O)C1(N2CCCCC2)CCN(C(=O)Nc2ccc(C(F)(F)F)cc2)CC1,inactive: -11.4%
22,Cc1ccc(CNS(=O)(=O)c2cc(C(=O)Nc3cccc(C(F)(F)F)c3)ccc2F)cc1,inactive: 10.2%

row,Compound,activation
1,CC(C)(Oc1ccc(Cl)cc1)C(=O)O,inactive: -1.94%
2,Cc1cc(C)c2c(=O)cc(CSc3nnc(COc4ccccc4C)n3C)[nH]c2c1,inactive: 24.5%
3,Cc1ccc2c(c1)c1c(c(=O)n(-c3ccccc3C)c(=O)n1CC(=O)NCc1ccccc1)n2C,inactive: -30%
4,CCOC(=O)c1ccc(N2C(=O)c3n[nH]c(-c4cccs4)c3C2c2ccc(C(C)C)cc2)cc1 (stereo not given),inactive: -27.7%
5,CN1CCCN=C1COC(=O)C(O)(c1ccccc1)C1CCCCC1 (stereo not given),inactive: 4.91%
6,O=c1cc(-c2ccccc2)c2cc(Cl)c3c(c2o1)CN(Cc1ccccc1)CO3,inactive: -8.18%
7,COc1ccc(CC(=O)NCc2ccc3c(c2)CCN3C(=O)c2ccc(Cl)cc2)cc1OC,inactive: 7.75%
8,CCOC(=O)c1c(Oc2ccc(OC)cc2)nnc(-c2ccccc2)c1-c1ccccc1,inactive: -12.7%
9,Cc1ccc(OCCCn2c(CCNC(=O)C3CCCCC3)nc3ccccc32)c(C)c1,inactive: 11.2%
10,COc1ccccc1NC(=O)Cn1c(=O)n(Cc2ccco2)c(=O)c2cccnc21,inactive: -7.46%
11,Cc1cc(-c2ccc(C)c(S(=O)(=O)N(C)c3ccc(C)c(C)c3)c2)on1,inactive: -11.6%
12,COc1ccc(OC)c(NC(=O)CN2C(=O)c3ccccc3Sc3ccc(C(=O)N4CCCC4)cc32)c1,inactive: -2.04%
13,COc1ccc(N(Cc2cccs2)C(=O)Nc2ccccc2)cc1,inactive: -24.7%
14,COc1ccc(C2=CC(c3ccccc3F)n3ncc(C(=O)Nc4ccc(C)cc4)c3N2)cc1 (stereo not given),inactive: -5.12%
15,CCC(=O)Nc1ccc(S(=O)(=O)NCc2ccc3c(c2)CCN3C(=O)c2ccc(C)cc2)cc1,inactive: -19.8%
16,CCN(CC)C(=O)c1sc(NC(=O)C(C)Sc2nc(-c3ccccc3)cc(C(F)(F)F)n2)c(C(=O)OC)c1C (stereo not given),inactive: -39.8%
17,CCOC(=O)c1c(-c2ccccc2)csc1NC(=O)c1nc(S(=O)(=O)CC)ncc1Cl,inactive: -11.7%
18,COc1ccccc1Cn1ccn(Cc2c(F)cccc2Cl)c(=O)c1=O,inactive: -21.2%
19,COC(=O)c1ccccc1NC(=O)CCC(=O)N1CCOc2ccccc21,inactive: -6.89%
